# Test results taken from PubChem BioAssay AID1346428 (National Center for Advancing Translational Sciences (NCATS), 2018).
# In all, about 48,000 compounds went through this assay and about 1,200 (2.5%) were called active. Another 2% or so got no clear call; they are omitted.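 How the source made its calls: active means activation of at least 60% and not above a set upper limit (about 1 call in 100 departs from these limits); inconclusive means activation of 40% to 60%, or above that upper limit; inactive means activation under 40%.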 The list shows a part of the results.
# Target: Probable G-protein coupled receptor 32 (Homo sapiens) (UniProt O75388)
# Sequence of UniProt O75388 (O75388 whole entry, looked up): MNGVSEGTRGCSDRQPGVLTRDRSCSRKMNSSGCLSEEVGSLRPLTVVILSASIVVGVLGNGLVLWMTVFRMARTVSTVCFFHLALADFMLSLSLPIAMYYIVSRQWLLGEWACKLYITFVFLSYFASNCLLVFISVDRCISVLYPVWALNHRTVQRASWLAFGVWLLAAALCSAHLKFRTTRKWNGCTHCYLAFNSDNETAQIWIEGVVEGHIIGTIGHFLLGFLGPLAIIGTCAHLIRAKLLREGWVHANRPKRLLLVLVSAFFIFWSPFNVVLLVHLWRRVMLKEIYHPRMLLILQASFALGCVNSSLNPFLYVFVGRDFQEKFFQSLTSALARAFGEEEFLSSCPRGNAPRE
# Experiment: qHTS for Agonists of Human Resolvin D1 Receptor DRV1
# Details: CHO-K1 GPR32 beta-arrestin PathHunter luminescence, 90 min; at 76.9 µM; stronger effect = higher value; zero percent set by DMSO-only wells
# Outline: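 PathHunter enzyme-fragment complementation, CHO-K1 GPR32 stable line; 2,500 cells/well, overnight attach; cpd 90 min 37 °C 5% CO2; detection reagent 1 h RT; chemiluminescence. DMSO = EC0.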
row,Compound,activation
1,O=C1Nc2cc(Cl)ccc2Oc2ccccc21,inactive: 2.64%
2,O=C(CSc1nc(-c2ccccc2)no1)N1CCN(c2ccccc2)CC1,inactive: -1.55%
3,Cc1ccc(NC(=O)c2cc(S(=O)(=O)N3CCCCCC3)ccc2F)cc1F,inactive: 29.1%
4,CCN1CCc2c(sc(-n3cccc3)c2C(C)NC(=O)Nc2cc(Cl)c(OC)cc2OC)C1 (stereo not drawn),inactive: -18.1%
5,CC1(C)CC(=O)c2cc(-c3nc(-c4ccc(Cl)cc4)cs3)c(=O)[nH]c2C1,inactive: 4.66%
6,Cc1sc2c(c1C)c(=O)n(Cc1ccccc1)c(=O)n2CC(=O)N(C)c1ccccc1,inactive: 12.1%
7,CCCNC(=O)c1cnn2c(C(F)F)cc(-c3ccccc3)nc12,inactive: -1.34%
8,COc1ccc(CCNc2oc(COc3cccc(C)c3)nc2C#N)cc1OC,active: 111%
9,COc1ccc(S(=O)(=O)NCc2ccc3c(c2)CCN3C(C)=O)cc1OC,inactive: 7.71%
10,CCOc1ccc(CN2C(=O)c3ccccc3Sc3ccc(C(=O)NCCCN4CCOCC4)cc32)cc1,inactive: -2.53%
11,Cc1ccc(NC(=O)CCS(=O)(=O)c2ccc3nc(C)sc3c2)c(C)c1,inactive: -13.1%
12,Nc1ncnc2c1ncn2[C@@H]1O[C@H](COP(=O)(O)O)[C@@H](O)[C@H]1O,inactive: 4.87%
13,O=C(Nc1ccc(Cl)c(Cl)c1)N(Cc1c[nH]c2ccccc12)C1CCCCC1,inactive: -4.92%
14,CCOc1ccc(S(=O)(=O)N(CC(=O)NCCc2ccc(OC)cc2)c2ccccc2)cc1,inactive: -2.25%
15,COc1ccccc1N1CCN(c2c(CN3CCCC3)c(=O)oc3ccccc23)CC1,inactive: -12.2%
16,CN(C)c1ncc(C(=O)NCc2ccccc2Cl)cn1,inactive: 14.3%
17,COC(=O)c1ccc([C@H]2Nc3ccc(S(=O)(=O)Nc4ccc(F)cc4)cc3[C@H]3C=CC[C@H]32)cc1,inactive: -17.5%
18,Cc1ccc(OCC(=O)N(Cc2nc(-c3ccccc3)no2)C(C)C)cc1C,inactive: -12.1%
19,Cc1ccc(S(=O)(=O)N2CCCc3cc(NS(=O)(=O)c4ccccc4)ccc32)cc1,inactive: -12.5%
20,CCOc1ccc(C(=O)Nc2ccc(NC(=O)c3ccccc3)cc2)cc1Br,inactive: -2.48%
21,CCOC(=O)c1ccc(N2CCN(c3ccc(F)cc3)CC2)c(NC(=O)Nc2ccc(CC)cc2)c1,inactive: -3.16%
22,Cc1ccc2[nH]c(=O)c3cc(C(=O)NCc4cccc(Cl)c4)sc3c2c1,inactive: -11.5%
23,Cc1cc(OCC(=O)Nc2sc3c(c2C#N)CCC(C)C3)ccc1Cl (stereo not drawn),inactive: 17.4%
